The supplement of paper PMC11417369
Some of the results follow.

Test system: PfSIP2 AP2 domain 1 (GST-tagged)
Assay: gcPBM binding intensity (ln(normalized median fluorescence intensity)); higher = stronger DNA binding
Method in brief: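 Probes on an Agilent 4 × 180k array were primer-extended, double-stranded and 36 bp long, taken from intergenic genomic regions, with negative controls added. GST-tagged P. falciparum DNA-binding domains from E. coli, about 25 μg on average, were applied to the array for 1 h in 1× PBS containing 1% milk, 0.2 mg/ml BSA, 0.5% salmon testes DNA and 0.03% Triton X-100. Binding intensity, obtained after Alexa488 anti-GST antibody detection and a 488 nm scan, is the highest Masliner-normalised natural-log median intensity across replicate spots of either probe orientation.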

Sequence | gcPBM binding intensity (ln)
CATTTTTACCGGTACTGTACATAAAAAAAAAAAAAG [XGTACX_site1548] | 7.43
TTATATGTTTTACAACGTACACAAAAAAAACTTATA [XGTACX_site4413] | 7
GCAGGCTAAAAAATTACACACGAAAAAAATGAATTT [CACACA_site3417] | 6.83
CATATATGGTTATATACATGCACCATTATATTATTA [TGCATGCA_site520] | 10.3
TATATAATATTTTTCACACACCATTTCCTTAAACAC [CACACA_site4862] | 7.32
TAAAAAAAAAGAAGGGGTACATGGATAATATATAAA [XGTACX_site8386] | 6.97
TGTATAACCTGTGTTACACACATTATGATTTATATA [CACACA_site525] | 6.86
TTGATAATTATATAATGTACTCATTATAATATGATG [XGTACX_site7813] | 6.95
TATAAAAAAAAAAAAAGTACTAACTTAAAACAATTT [XGTACX_site7969] | 6.95
TAATTAATAATAATATGTACATATTAATATATTATT [XGTACX_site6900] | 7.1
TTTTATATATATATCACACACACACCCATGTTTTAA [CACACA_site79] | 7.01
TTTATTCTCAAACACACACACATATATATATATATA [CACACA_site2895] | 8.87
TGATAAAGTAAATATACATGCGATTAGTTATATATA [TGCATGCA_site720] | 6.97
TATTTATTCTCCAACACACACACATATATTTATATA [CACACA_site7376] | 7.01
AGTTTGTCAATCAACACACACCTATTTATTATAGAT [CACACA_site7777] | 6.78
TTTTTTTTACATTCTGCACACAATTTATTTTTTTTT [CACACA_site36] | 7.12
AAAAATGAGTGACACACACACATATAAATATAAATA [CACACA_site7115] | 6.75
AAATCAAACTTTGGTGTGCACAAATATATACATATA [GTGCAC_site9986] | 9.51
GTAATTTTAAAGAAAAGTACACATTTATTAATTATT [XGTACX_site4468] | 6.72
ACATATAAATATTGTGTGCACACACATAATATATAT | 8.29
GTGTTAAATGTTTACACACAAACTTGCAATAATTAT [CACACA_site3825] | 7.12
TTGCATTTATTATACACACACAAAAAAATATATATA [CACACA_site238] | 7.62
AAAAATTATAACTAAAAAAATCACACAAAATATTTT [TGCATGCA_negctrl_site28] | 6.77

Sequence | gcPBM binding intensity (ln)
TATGTATTTAAGTTACCTGAACGTTCAGGTAAAATT [CACACA_negctrl_site1393] | 6.96
AAAATCTATAATATAACACACATATATTCTATATGG [CACACA_site7821] | 6.68
TTCCTGTTAATTACAACACACAATTCTTATTTTATG [CACACA_site6507] | 6.94
CATACATACAGACACACACACATATAAATACATACA [CACACA_site6533] | 7.22
ATTTTCAAATTCTATGCATGTGTATATTATAGATAA [TGCATGCA_site1003] | 7.16
TTAACAAAACTTTTAACACACAAAAAAAAAAAAAAA [CACACA_site6947] | 6.92
CTATAATAATAAAGTGAACACACACCGATAATATAT [CACACA_site9377] | 7.02
TTATGATATATTTGTTGTACGCTTTTTTTATGAACT [XGTACX_site573] | 7.25
GTAAGTTGTGCATTCACACACATATAAATATAAATA [CACACA_site7536] | 7.88
CATTATGTTGTAAATGCACACATACAAATACATATA [CACACA_site8380] | 7.3
AATTAAATTACTTATACACACATAAAATGCCTGTAT [CACACA_site6597] | 6.88
ATGACCCACTTTTCTGCACACATAAAAAATATATAA [CACACA_site8092] | 7.9
AACACATACATATATACACACACAAAATAATAAAAT [CACACA_site8724] | 7.24
TTTTTTCTATTGAGCACACATATCACGATTAGTACT [CACACA_site313] | 7.14
ATATATATTATTTCTACACACATATATATAATATGT [CACACA_site3374] | 7.36
GCTCAATTTTTGGGTACACACAAATGTATAATAATA [CACACA_site2388] | 7.36
CAAAGAGAAATAAACACACACAAAATAAAGAAAAAA [CACACA_site2245] | 6.73
TTCTTTTTTCAACACACACACACAAGAAAATATATA [CACACA_site9019] | 7.59
AAAAAAAAAAAAAAAACACACATATAGATTTATATA [CACACA_site7196] | 7.41
GCACTCGTAAAAAGCACACATATAAAAACATTTATA [CACACA_site322] | 7.17
TGAACAGACAAATACACACACTCAAAAAAAAAAAAG [CACACA_site7287] | 7.01
CAATGCTTTATCAATACATGCATATATATAGAAATA [TGCATGCA_site857] | 6.9
AAAAATTTTTTTTCATTTGTTTTTATTCCGTAAAAA [CACACA_negctrl_site1217] | 6.9

Sequence | gcPBM binding intensity (ln)
AATATAAAAAAAAAATGTACATATTATATATATATA [XGTACX_site5113] | 8.66
ACCGAAGGAATTTATAGTACACATCATAAATAAATT [XGTACX_site4100] | 6.97
TATAATATAAAATAATGTACTTTGAAATATGACATA [XGTACX_site3579] | 6.91
AGTTTGATTTTTTCTTATAATATATTATTATATATT [CACACA_negctrl_site376] | 7.12
TTTTTATTAATAGATATAAATATATAATATGAATGT [TGCATGCA_negctrl_site309] | 7.04
ATATATATATATATTTGTACAGATTTATATTATAAT [XGTACX_site7612] | 9.49
CCATATAATATGAACAGTACACACAAAATAAATTCG [XGTACX_site7590] | 7.08
AAATATTATAGCACCACACACTTATTTTATATATAT [CACACA_site5281] | 8.08
GAAAATTTAATATAGAACGAAAGCATACACATATAT [GTGCAC_negctrl_site424] | 7.06
ATATGTGATTTCTAATGTACACAAAAAAAAAAAAAA [XGTACX_site7701] | 7.15
TTATGTCATAAATGCACACATATATAAATACAGATA [CACACA_site4959] | 7.32
TCTTCAAACAAAAAAAATAATAAAAAGTACAAAATG [CACACA_negctrl_site363] | 7.35
TTTTTGTTTTTGTTTTGTACTCATACATACTATCAT [XGTACX_site4210] | 6.99
GGGGTATCTTCCTATGCACACTTGTTATGTACTAAC [CACACA_site4610] | 7.89
CTTTTATTAAAATTCACACACATAAATTTTTATAAA [CACACA_site1993] | 6.99
ATATATACGTATGAATGTATATTTGTTTGATTTTTT [CACACA_negctrl_site835] | 6.77
ATTTTCATGATAAAGGTGCAATTATTTTTATAAGAA | 10.8
TATATATATATATATGGTACAGTTTATGCCTTTTAA [XGTACX_site6695] | 9.38
TTATTTATAATATATACACACTAACATTATTTATCC [CACACA_site4835] | 6.9
TATAATATATACAAATGTACATATATATATATATAT [XGTACX_site4559] | 9.73
ATATATATGTGAAAATCACACATTGCTTATCTGTAA [CACACA_site6044] | 6.9
TGTTTTATTATTTATAGTACATAAAAAAATATTGTA [XGTACX_site8963] | 7.12
AACAATATTATTGTTTGTACTCACATATATAATATA [XGTACX_site8063] | 7.13

Sequence | gcPBM binding intensity (ln)
TTCGTATATTATTAATGTACATTATAAAATCAATAT [XGTACX_site5751] | 7.08
AAAAAAACATGAAACACACACAAATATATATATATA [CACACA_site1884] | 9.56
AAAAAAAAAAAAAAAAAAAAAAAAAAAATTCTATAT [GTGCAC_negctrl_site468] | 8.67
AAGGCATACAATACCTGTACGCAACCTTAAAAAGAA [XGTACX_site6070] | 7.34
AGATATTTCATTTAAAGTACATTCTTTATCACATAA [XGTACX_site6731] | 6.99
CACACGCACAAAAACACACACAAAGGTGTTCTTATA [CACACA_site6724] | 7.12
TTATTTTTTTTTTTTCGTACTTATTTATCTTGGTAT [XGTACX_site78] | 6.86
GGATTTATTATATATACACACATACATATATATATA [CACACA_site8669] | 9.44
GTCTAAGCTTATAGGCGTACACATGAATATGGATGT [XGTACX_site2439] | 7.16
ATACATAAAATTAAAACACACATTTGATTAAATACG [CACACA_site7088] | 7.08
AAAGGATACAGACACACACACACATATATATATATA [CACACA_site906] | 9.05
ATTATATAATTGTCTTCACACACACCGATATATATA [CACACA_site8883] | 7.39
ATAAGAAAAAAGAACTGTACTAATAAAATATAAAAA [XGTACX_site3715] | 6.99
ATAATATATATACAAACACACAATTGTGTCCACATT [CACACA_site1747] | 7.15
TGTACATATATATAATATATATATCATCATATTTTC [CACACA_negctrl_site1750] | 7.21
TCCTTAAAATATATCACACATTTCGTTCATTTATAA [CACACA_site4346] | 7.11
AGTATACGAATAAAATGTACATACAAATTGTTGTAA [XGTACX_site36] | 6.89
TATATATATATATCCACACACATACAGATATTAAGA [CACACA_site4214] | 9.28
ATATATATATATATATGTACATATATATACATATAT [XGTACX_site6987] | 9.42
ATTCACGTGTCTTAAAAAAAAAAAAAAGAAAAAAAG [CACACA_negctrl_site573] | 6.85
